# According to PubChem BioAssay AID1347165 (National Center for Advancing Translational Sciences (NCATS), 2019):
# Where “and” joins values, the source holds several entries; their conditions need not be identical. Equal values may be shown once. About 5,700 (2.6%) of roughly 220,000 compounds were called active. The shares of active, inactive and inconclusive entries below differ from those in the screen. Calls come from the whole dose curve; as a rule, active = well fitted inhibition curve with a large enough effect; inconclusive = small, poorly fitted or top-dose-only effect; inactive = no such curve, though single readings can be large or run the other way. Potencies beside an inconclusive call are fits to weak or partial responses and may not hold up.
# Target: Lysine-specific demethylase 5B (Homo sapiens) (UniProt Q9UGL1)
# Test: Primary screen for KDM5B Histone Demethylases FDH-coupled qHTS; note: nearly all actives have a fitted effect of over 70% in size
# Settings: FDH-coupled NADH fluorescence (FDH is formaldehyde dehydrogenase); series mostly up to 57.7 µM
# Procedure, shortened: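 qHTS format, multiple compound concentrations. Buffer 50 mM HEPES pH 7.5/0.01% Tween-20; 200 nM KDM5BΔAP final; 10 min compound preincubation; substrate-mix levels 12.5 µM peptide, 25 µM α-KG, 0.25 mM NAD⁺; 30 min RT; ΔRFU.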
# Potency is the fitted concentration of half-maximal effect; tags give direction and shape of the fitted curve.
# Sequence of UniProt Q9UGL1 (Q9UGL1 whole entry, looked up): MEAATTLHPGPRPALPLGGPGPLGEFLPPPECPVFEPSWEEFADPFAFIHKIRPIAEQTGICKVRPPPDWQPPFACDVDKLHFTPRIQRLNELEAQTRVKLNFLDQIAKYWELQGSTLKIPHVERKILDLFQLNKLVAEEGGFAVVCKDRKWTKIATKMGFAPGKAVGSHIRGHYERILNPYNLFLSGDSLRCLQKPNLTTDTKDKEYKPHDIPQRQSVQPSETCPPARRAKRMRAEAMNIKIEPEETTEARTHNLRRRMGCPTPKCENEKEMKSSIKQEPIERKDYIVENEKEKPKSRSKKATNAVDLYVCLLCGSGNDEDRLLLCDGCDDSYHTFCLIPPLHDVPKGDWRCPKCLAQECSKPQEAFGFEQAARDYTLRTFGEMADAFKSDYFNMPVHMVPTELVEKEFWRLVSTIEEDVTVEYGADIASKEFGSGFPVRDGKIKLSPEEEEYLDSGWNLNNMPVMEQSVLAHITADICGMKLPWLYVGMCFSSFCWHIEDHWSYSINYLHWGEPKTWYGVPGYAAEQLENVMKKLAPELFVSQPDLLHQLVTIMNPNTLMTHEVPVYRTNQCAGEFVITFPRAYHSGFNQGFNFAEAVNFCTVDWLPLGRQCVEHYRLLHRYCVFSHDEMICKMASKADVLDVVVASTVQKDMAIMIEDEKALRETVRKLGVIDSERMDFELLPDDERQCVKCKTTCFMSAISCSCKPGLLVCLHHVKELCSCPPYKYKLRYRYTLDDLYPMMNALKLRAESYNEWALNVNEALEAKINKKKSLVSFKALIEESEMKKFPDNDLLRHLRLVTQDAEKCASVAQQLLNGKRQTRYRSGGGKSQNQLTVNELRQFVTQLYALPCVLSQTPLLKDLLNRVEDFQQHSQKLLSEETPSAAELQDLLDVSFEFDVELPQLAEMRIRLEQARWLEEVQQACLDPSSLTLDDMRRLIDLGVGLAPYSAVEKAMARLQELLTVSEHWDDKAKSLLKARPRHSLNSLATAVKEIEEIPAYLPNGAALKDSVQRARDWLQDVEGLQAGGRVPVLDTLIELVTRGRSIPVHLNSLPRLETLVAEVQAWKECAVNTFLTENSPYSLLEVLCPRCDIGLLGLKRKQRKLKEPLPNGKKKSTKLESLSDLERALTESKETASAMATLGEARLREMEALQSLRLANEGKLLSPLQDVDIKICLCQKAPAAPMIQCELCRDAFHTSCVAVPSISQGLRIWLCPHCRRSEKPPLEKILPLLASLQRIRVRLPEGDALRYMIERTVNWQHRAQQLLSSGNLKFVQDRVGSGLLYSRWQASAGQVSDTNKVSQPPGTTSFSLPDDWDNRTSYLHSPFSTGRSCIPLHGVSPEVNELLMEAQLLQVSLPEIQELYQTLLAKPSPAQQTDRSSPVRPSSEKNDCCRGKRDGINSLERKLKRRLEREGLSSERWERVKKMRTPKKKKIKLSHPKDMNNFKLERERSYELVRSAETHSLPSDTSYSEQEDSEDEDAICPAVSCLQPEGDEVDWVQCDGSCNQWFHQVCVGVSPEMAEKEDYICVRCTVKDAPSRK
row,SMILES,Potency
1,Cc1ccc(CCNC(=O)CCc2cn(Cc3ccccc3C)c3ccccc23)cc1,"inconclusive: 15.8 µM [inhibitor, partial curve, poor fit]"
2,Cc1ccccc1C(=O)N1CCN(c2cc(-c3cccs3)[nH]n2)CC1,"inconclusive: 31.6 µM [inhibitor, partial curve, poor fit]"
3,Cc1nc(C(=O)N2CCC(c3[nH]ncc3-c3ccccc3C)CC2)cs1,inactive
4,c1ccc(CNc2ncc(CN3CCC4(CCNCC4)C3)cn2)cc1,"inconclusive: 17.8 µM [inhibitor, partial curve, poor fit]"
5,COCCn1c(C)cnc1CCNS(=O)(=O)c1ccccc1,"inconclusive: 11.2 µM [inhibitor, partial curve]"
6,Cc1ccc(CN(C(=O)c2ccco2)c2ccc(CC(=O)N(C)Cc3ccccc3)cc2)cc1,"inconclusive: 31.6 µM [inhibitor, partial curve, poor fit]"
7,Cc1ccccc1S(=O)(=O)N1CCC(Cc2nncn2C)CC1,"inconclusive: 28.2 µM [inhibitor, partial curve, poor fit]"
8,CCn1cc(S(=O)(=O)c2cc(C)cc(C)c2)c(=O)c2cc(F)c(N3CCOCC3)cc21,"inconclusive: 28.2 µM [inhibitor, partial curve, poor fit]"
9,COc1ccccc1Nc1c2c(nc3ccc(NC(=O)/C=C/c4cccc(OC)c4OC)cc13)CCCC2,"inconclusive: 35.5 µM [inhibitor, single point]"
10,O=C(NCCc1ccccn1)c1cccnc1OC1CCNCC1,active: 28.2 µM
11,CN1CC(=O)N(C2CCCNC2)Cc2c1ncnc2N1CCCN(Cc2ccccc2)CC1 (configuration not stated),"inconclusive: 50.1 µM [inhibitor, partial curve, poor fit]"
12,COCCN(C)Cc1nc(Cc2ccccc2Cl)no1,inactive
13,O=c1[nH]c(C2CCCN(Cc3ccc(-c4cccs4)cc3)C2)nc2ccc(F)cc12 (configuration not stated),"inconclusive: 56.2 µM [inhibitor, partial curve, poor fit] and inconclusive: 28.2 µM [inhibitor, partial curve, poor fit]"
14,COCC1CN(Cc2cccc(C#N)c2)CC12CCNCC2 (configuration not stated),"inconclusive: 3.98 µM [inhibitor, full curve, poor fit]"
15,C[S+](=O)([O-])Nc1cccc(-c2cc3c(ccn3Cc3cccnc3)c(C3=CCOCC3)n2)c1,"inconclusive: 28.2 µM [inhibitor, partial curve, poor fit]"
16,COCCn1ccnc1C1CCN(c2cnc3ccccc3n2)CC1,"inconclusive: 17.8 µM [inhibitor, partial curve, poor fit]"
17,COC(=O)c1cc(C2CC2)nc2onc(-c3ccc(F)cc3)c12,inactive
18,COc1ccccc1-n1cc(-c2ccc(C)cc2)nc1S(=O)(=O)CC(=O)Nc1ccccc1C(F)(F)F,"inconclusive: 39.8 µM [inhibitor, single point]"
19,Cc1cc(C)c2c(=O)cc(C(=O)Nc3c(C)cccc3C)oc2c1,inactive
20,CCOCCOC(=O)COc1ccc2c(=O)c(Oc3ccccc3Br)coc2c1,inactive
21,Cc1ccc(C(=O)C2=C(O)C(=O)N(Cc3cccnc3)C2c2ccc(Cl)cc2)o1 (configuration not stated),"inconclusive: 22.4 µM [inhibitor, single point]"

row,SMILES,Potency
1,O=C(CSc1nnc(N2CCOCC2)n1-c1cccc(F)c1)N(C1=CCCCC1)C1CC1,inactive
2,COc1c(C)cccc1C(=O)Nc1ccc2oc(=O)ccc2c1,"inconclusive: 28.2 µM [inhibitor, partial curve, poor fit]"
3,N#Cc1cccnc1N1CCC(CO)(Cc2ccccc2C(F)(F)F)CC1,"inconclusive: 31.6 µM [inhibitor, partial curve, poor fit]"
4,CN(Cc1csc(-c2ccccc2)n1)C(=O)c1ccc2nccn2c1,"inconclusive: 31.6 µM [inhibitor, partial curve, poor fit]"
5,Cc1ccc(S(=O)(=O)N2CCC(Oc3ccc(-n4cnnn4)cc3)CC2)cc1,"inconclusive: 2.51 µM [inhibitor, partial curve, poor fit]"
6,O=C(NCC(F)F)C1CCCN(c2nc3ncccc3o2)C1 (configuration not stated),active: 28.2 µM
7,COc1ccc(CC(=O)Nc2ccc3nc(Nc4cccc(Cl)c4)cc(C)c3c2)cc1OC,"inconclusive: 15.8 µM [inhibitor, partial curve, poor fit]"
8,COc1cccc(NC(=O)CCC2CCN(S(=O)(=O)c3ccccc3)CC2)c1,active: 28.2 µM
9,O=c1c(-c2ccc(Br)cc2)c(C(F)(F)F)oc2cc(O)ccc12,inactive
10,Cc1c(S(=O)(=O)c2ccc(F)cc2)c(N)n(Cc2cccnc2)c1C,"inconclusive: 44.7 µM [inhibitor, partial curve, poor fit]"
11,O=C(NCc1ccnc2[nH]ccc12)c1ccc(F)cc1,active: 35.5 µM
12,Cc1ccc2c(=O)cc(C(=O)N(Cc3ccc(Cl)cc3)Cc3ccco3)oc2c1,inactive
13,CN(C)C(=O)c1ccc(NC(=O)Cn2nc(-c3ccc(Cl)cc3)c3ccccc3c2=O)cc1,inactive
14,COCCOc1ncccc1-c1noc([C@@H]2CCCN2Cc2ncc[nH]2)n1,inactive
15,O=c1ccc2cc(S(=O)(=O)NC34CC5CC(CC(C5)C3)C4)ccc2o1,inactive
16,CC(C)CN(C(=O)c1cc(-c2ccco2)nc2ccccc12)c1c(N)n(CC(C)C)c(=O)[nH]c1=O,"inconclusive: 22.4 µM [inhibitor, partial curve, poor fit]"
17,CCC(=O)Nc1cccc(-c2nc3cc(Cl)cc(Cl)c3o2)c1,inactive
18,Cc1nn(-c2ccc3nnc(C)n3n2)c2c1C(c1ccc(O)cc1)CC(=O)N2 (configuration not stated),inactive
19,Cc1cccc2c(C(=O)O)cc(-c3ccco3)nc12,"inconclusive: 25.1 µM [inhibitor, partial curve, poor fit]"
20,O=C(NC(=O)c1cccc(F)c1)Nc1ccc(-c2cc(C(F)(F)F)nn2-c2ccccc2)cc1,"inconclusive: 28.2 µM [inhibitor, partial curve, poor fit]"
21,O=C(CCc1cccnc1)N1CCC(c2[nH]ncc2-c2cccc(F)c2)CC1,inactive
